The list shows a part of the results.

The values below come from PMC12136788.

The labels stand for the following.
B1: chrX:147030410:147030411:+_ENSG00000102081_ENST00000218200|hu_hu|FALSE|FALSE (ssRNA)
RNA: GGGAGUUCUACAGUCCGACGAUCUUUCAUGCCCUGUGCCAUCUUGCCUACUAUUUGUCUUUGGCCUAACAAAGUUUUCUAAUAUGGAAUAAGAAUUACGGAAAUGGUAUAGGAAAUAUAACUUCAGAAUUAUGCAGUUUAGGGCAACAGAGGAUUGAGCAUCA
B2: chr2:202488911:202488912:-_ENSG00000155755_ENST00000286196|hu_mus|hu_hu_hu_mus_False|88_88 (ssRNA)
RNA: GGGAGUUCUACAGUCCGACGAUCAUUGAAACAUUUUUCAUAAUCUCAGAGAUGUUUUCAGCAUUAUGUAACAAAAGCUCAAUUGUAAAUACAUGUAUCUUAUAAAAAUACACUUAAAAACACGAGUGGGGAGCGCAGGCGCCACAACAGAGGAUUGAGCAUCA
B3: chr14:89307221:89307222:+_ENSG00000165533_ENST00000346301|hu_mus|hu_hu_hu_mus_False|78_78 (ssRNA)
RNA: GGGAGUUCUACAGUCCGACGAUCUCCUGUUUGGUUAGUGCCAGGGAGCUUCAAAGACGUUCCAGGGCGUGGGACCUGAGCAAUAGCAUUUUCAUCCAGGAUCAUUUCAGCAAUUCCUUCCUGGUCCACAUCAAUUUCAUCUAUCAACAGAGGAUUGAGCAUCA
B4: chr13:13450785:13450786:-_ENSMUSG00000021306_ENSMUST00000021738|mus_mus|motif|central (ssRNA)
RNA: GGGAGUUCUACAGUCCGACGAUCGGCCAGAAGUAUUUAUUGUUAAUACUCUGUGGGGACCUCUUGGCUUGUAGCCUGACGGUAGCAAGCACUGGCUGAGUCAAAGAAGGCACAGUCCUUGCAUCCUACUGAGGUACUGAGGUACAACAGAGGAUUGAGCAUCA
B5: 73932000_73932120_1381_3pUTR_ENSG00000171617_ENST00000302351|human|control|control (ssRNA)
RNA: GGGAGUUCUACAGUCCGACGAUCAGUCAAGCAGCAGCUCCAAGACUUCUGGGUGGAUGGAAUUGUCAAAGUUGACCUCACUGUCCUGGCUCUCUUUCAGGCCACCACUGAACAUGGCCUCAAAGUAGCGACUGCAUGCAGCCACAACAGAGGAUUGAGCAUCA
B6: chr2:216225781:216225782:-_ENSG00000115414_ENST00000323926|hu_mus|FALSE|FALSE (ssRNA)
RNA: GGGAGUUCUACAGUCCGACGAUCAAUACUGGGAAAAAUUGAUAAAUAACAAACAGGUAAGAGAAAGGUAUUUCUAGGCAAUCUGAAUUGUUGGGACAAAGUGAGUCCUGUGGGAGGGGUGUUUGAACACACAGCCACAGGCCACAACAGAGGAUUGAGCAUCA
B7: chr3:101264221:101264222:+_ENSMUSG00000042035_ENSMUST00000043983|mus_hu|FALSE|FALSE (ssRNA)
RNA: GGGAGUUCUACAGUCCGACGAUCAAAUCUGUGAGUAGAUGUGGCACCUGGAGCUACUCACUACAUUACUAAAAACAGAAACAAGAAAUCUAUAAUGGCAGGAUCACAACAUUUGCGCGCAAAUAGCUAACCAACCAAGACUGCCAACAGAGGAUUGAGCAUCA
B8: chr5:122941739:122941740:-_ENSMUSG00000029467_ENSMUST00000031423|mus_mus|FALSE|FALSE (ssRNA)
RNA: GGGAGUUCUACAGUCCGACGAUCUCUUUCCUGCCACACACCCACGAUUGCAUUGGCUACCAAGAUAAGCAGAAUUACAAACGGCUCUACAAAGGCUGUAAUCGUUUCUUCCCCUUCCUCGAACCAAGCCAAAACGAAAGAUAUCAACAGAGGAUUGAGCAUCA
B9: chr13:6597965:6597966:-_ENSMUSG00000021196_ENSMUST00000144053|mus_mus|motif|central (ssRNA)
RNA: GGGAGUUCUACAGUCCGACGAUCUCAUUCUCUCAUAUUACCACUGGCUCAAAUCCUCCAAUGAUCAGAAGGGCAUUGAUACGGUGGGAAUGCAUCUGCUCUGCGAUCUUCUCCAAGUACUUUCCAGGUAGGGUGCGUUUUGUCCAACAGAGGAUUGAGCAUCA
B10: chr3:150289932:150289933:+_ENSG00000144895_ENST00000460851|hu_hu|hu_hu_hu_mus_False|8_8 (ssRNA)
RNA: GGGAGUUCUACAGUCCGACGAUCCUUGUAGUUUUUAACAUCCCAUACUUCCAUUUGUCCUCGAAGAUUUCCAAAUCCAGCCAGCACUAAUAUAUGUCCAUGAGGGCUAUAGAAGGCUGCGUUGCGAGGACCAGUUCCAAAGUCCAACAGAGGAUUGAGCAUCA
B11: chr11:23189859:23189860:+_ENSMUSG00000020290_ENSMUST00000020538|mus_mus|FALSE|FALSE (ssRNA)
RNA: GGGAGUUCUACAGUCCGACGAUCUUGAGGUAUUUCAGCUGUUAUAUGUCCACCUAAUUUGUUGACAAUAAUGGCCAUAGUACUAAGCACUUCUGGUUCUCUAGCAGCUGGUACAUUUCUCUGGUAAUCAAUAAGAACUGCAUCCAACAGAGGAUUGAGCAUCA
B12: chr17:45757422:45757423:+_ENSG00000108424_ENST00000290158|hu_mus|motif|central (ssRNA)
RNA: GGGAGUUCUACAGUCCGACGAUCUACAUCCUUCCCGAAGGCUGUACACAAGUCCCCUAUCAGACCAGCAGCACAGGCGGCCACUCCGUCCGUAUGAUCCUCAUCUCCAGCAAUGUGAUCAAUAAAAGACAAAAUAAAUUCUACCAACAGAGGAUUGAGCAUCA
B13: chr2:60072956:60072957:+_ENSMUSG00000026977_ENSMUST00000102748|mus_mus|motif|central (ssRNA)
RNA: GGGAGUUCUACAGUCCGACGAUCUGCACUUUUAGCUUUAUCAUUUUUCCCAUCAGUUGAAUUCCAACCAGAAGGAAUAAUAUCGGCAGUAAUCAUGACAUUGUCAGCCAGAUUACUGCCGAGUGCUGGUGGGACUGCAAACCGCAACAGAGGAUUGAGCAUCA
B14: chr3:179287964:179287965:+_ENSG00000136518_ENST00000429709|hu_hu|hu_hu_hu_mus_True|38_48 (ssRNA)
RNA: GGGAGUUCUACAGUCCGACGAUCCUUGAGUGGUGAGAUGGCCUCCAUGUUCUCCCUGGGCACGCGGAGGGCAUUGGUGUCUAUGUAGUAGGUGGGACCGCCUUGUUUGCCUUUGUCACCAUCAAUCUCCAUCAUUGUACUUCCCAACAGAGGAUUGAGCAUCA
B15: chr3:10015032:10015033:+_ENSMUSG00000027533_ENSMUST00000029046|mus_mus|mus_mus_mus_hu_True|38_98 (ssRNA)
RNA: GGGAGUUCUACAGUCCGACGAUCGUUUUUACCAUCACACGUAAUGAUACAAUCUGGCUUGGCCAUUGCGCCCAUUUUUCGCAAAGCUAUUCCCACUCCUAGCUCUUUCAUGUAUUCAUCAAAGCCUUUGCUGUCCACCAGGCGCAACAGAGGAUUGAGCAUCA
B16: 179620753_179621485_1811_3pUTR_ENSMUSG00000000305_ENSMUST00000000314|mouse|control|control (ssRNA)
RNA: GGGAGUUCUACAGUCCGACGAUCGAUCUGCCCAUUGGAUGUGUUGAUGUGCAGCCAGUUGGCGGGAUCAGACAGUUUGGAGUACCUCACGGCUUGCUGCAUGAACCGGUCAGGGUCCACUGCAGAAAAAGUGGUGAGUGCUGUCAACAGAGGAUUGAGCAUCA
B17: chr2:219093530:219093531:+_ENSG00000163466_ENST00000315717|hu_hu|FALSE|FALSE (ssRNA)
RNA: GGGAGUUCUACAGUCCGACGAUCCACCCUCUUUAAUAACUCAUCAGCACCAUGUGCCUGAAGUUCCUUGUAGAAUUUCAAAGAAAUACUGACCAUCACUUUUGUUUUGUCUCCAUUAGGAUUUGAAAUAUGAUAGAGGACCCCCAACAGAGGAUUGAGCAUCA
B18: chr1:58468927:58468928:-_ENSMUSG00000026034_ENSMUST00000148330|mus_mus|mus_mus_mus_hu_False|78_78 (ssRNA)
RNA: GGGAGUUCUACAGUCCGACGAUCAAUUACUGAAAAAGAUGUUCAUUACCUUAGCUAGGCCAUGUAUGAACCAAAUUACCCAAACAAAAUAAACAUGGCAAUAUAAAAAUGUUAAGAAUUUACAAAGCUGUACAAAAUAACUUACAACAGAGGAUUGAGCAUCA
B19: chr22:19452774:19452775:-_ENSG00000070010_ENST00000399523|hu_hu|hu_hu_hu_mus_False|48_98 (ssRNA)
RNA: GGGAGUUCUACAGUCCGACGAUCCUUCUCAUUGUAGUUGAUGGCAAUCACAUCUCCAGUCGUCAGACAGGCGAAGUUUCUCAAUGCGUUUUCUAAUACCGCUUUAGGGUUGGUAAUAUCCAGGAAGUCUGGGCUCUGAGGCUGCAACAGAGGAUUGAGCAUCA
B20: chr7:106494041:106494042:-_ENSMUSG00000070436_ENSMUST00000094154|mus_mus|motif|central (ssRNA)
RNA: GGGAGUUCUACAGUCCGACGAUCUUCUCGUUUUGAAAGCAACAAAGGCUCAUAUUUCCCUUCCCCCCAUCUUUGAAAAAACGGAAAAAGGGAGAAAAACAAAAGUUCAUGACUGUGAUGCCCAACAUAACAAUUCUAGGGCAGCAACAGAGGAUUGAGCAUCA
B21: 24909737_24909857_1513_CDS_ENSG00000107863_ENST00000396432|human|control|control (ssRNA)
RNA: GGGAGUUCUACAGUCCGACGAUCUCUGCUGCUUGAGAUUCCAUCAGAAUGUCCACUGUAAUUUCCAGACUUAAGUAAAAUUCCAGAAGGUUCCAGUGAUCUGGAGCCUGCAGGCUGAUGAAUUAGAUGAGUGGUGGGAAUUGACAACAGAGGAUUGAGCAUCA
B22: chr1:169100823:169100824:+_ENSG00000143153_ENST00000367816|hu_mus|FALSE|FALSE (ssRNA)
RNA: GGGAGUUCUACAGUCCGACGAUCGACAGUUUGUUCAAGACUAGUAGGUUUGUGUAUCUUUUUUUAACUUAUUAAAUGGCUAGUGGGAAAGAUUUGUGCUUGUGAUCAGCUCUUAAUUUCAAUUUUUACAUCAAAGCGUCCCUGCAACAGAGGAUUGAGCAUCA

This assay concerns the target T1, UNK ZnF1-3 (human, UniProt Q9C0B0 31-174).
T1 sequence: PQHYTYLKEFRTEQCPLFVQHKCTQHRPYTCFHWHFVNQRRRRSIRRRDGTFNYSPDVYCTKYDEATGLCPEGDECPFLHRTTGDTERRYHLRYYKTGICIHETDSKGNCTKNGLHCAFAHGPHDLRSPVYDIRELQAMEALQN
In words: nsRBNS (natural sequence RNA bind-n-seq); RBNS binding buffer (assumed for nsRBNS): 25 mM Tris pH 7.5, 150 mM KCl, 3 mM MgCl2, 0.01% Triton X-100, 500 ug/ml BSA, 20 U/ml SUPERase-In, 4 C; UNK is unkempt and MSI1 is Musashi-1; names of the RNAs are library labels; protein concentration not given here; high values mean tight binding.
The molecule B1 showed a binding signal of 1.72 enrichment R. In turn, B2 registered a binding signal of 0.632 enrichment R. As for B3, the figure is 0.861 enrichment R; as for B4, 0.743 enrichment R. Turning to B5, the binding signal came out at 1.28 enrichment R. Molecule B6 showed a binding signal of 1.01 enrichment R.

The molecule B7 yielded a binding signal of 1.67 enrichment R. The molecule B8 displayed a binding signal of 1.38 enrichment R. With B9, the binding signal was 0.778 enrichment R. B10 returned a binding signal of 0.885 enrichment R. Molecule B11 displayed a binding signal of 0.678 enrichment R. In the case of B12, the binding signal is 1.3 enrichment R. B13 registered a binding signal of 0.365 enrichment R. Consider B14, for which the binding signal came to 0.526 enrichment R.

Molecule B15 showed a binding signal of 0.755 enrichment R. In turn, B16 came in with a binding signal of 0.608 enrichment R. In turn, B17 came in with a binding signal of 1.46 enrichment R. The molecule B18 returned a binding signal of 1.24 enrichment R. As to B19, the binding signal is 0.786 enrichment R. As for B20, the figure is 1.22 enrichment R; as for B21, 1.3 enrichment R; as for B22, 1.14 enrichment R.
